# Laboratory results reported in patent US20120107297.
# B1: GST-UCP (protein)
# chain: [no letters for about 200 residues]MNSNVENLPPHIIRLVYKEVTTLTADPPDGIKVFPNEEDLTDLQVTIEGPEGTPYAGGLFRMKLLLGKDFPASPPKGYFLTKIFHPNVGANGEICVNVLKRDWTAELGIRHVLLTIKCLLIHPNPESALNEEAGRLLLENYEEYAARARLLTEIHGGAGGPSGRAEAGRALASGTEASSTDPGAPGGPGGAEGPMAKKHAGERDKKLAAKKKTDKKRALRRL
# Target: Flag-VHL, P40337
# Sequence (P40337 whole entry, looked up): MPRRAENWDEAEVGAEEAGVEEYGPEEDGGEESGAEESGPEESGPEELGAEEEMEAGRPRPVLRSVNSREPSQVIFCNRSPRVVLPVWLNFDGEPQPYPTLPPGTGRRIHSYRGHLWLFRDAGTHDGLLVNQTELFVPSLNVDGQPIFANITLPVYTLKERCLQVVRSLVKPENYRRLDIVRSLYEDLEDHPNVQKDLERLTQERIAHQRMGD
protein,measurement,value
B1,"in vitro multiubiquitination of VHL (Western blot, FIG. 17)",wild type UCP induces in vitro multiubiquitination of VHL
same,"in vitro ubiquitination of VHL (E1, His-ubiquitin, Ni-NTA pull-down, Western blot)",in vitro ubiquitination of VHL by UCP was detected
same,"in vitro ubiquitination of VHL (E1, His-ubiquitin, anti-Flag-agarose and Ni-NTA precipitation, Western blot)",VHL ubiquitination directly catalyzed by the wild type UCP was detected in vitro
